# Source: PubChem BioAssay AID1865 (National Center for Advancing Translational Sciences (NCATS), 2009)
# Hit rate of the full screen: of about 280,000 compounds, about 540 (0.19%) were called active. The shares of active, inactive and inconclusive entries below differ from those in the screen. Calls follow the shape of the dose curve; as a rule, active = well fitted activation curve with a large enough effect; inconclusive = small, poorly fitted or top-dose-only effect; inactive = flat fitted curve, though single readings scatter. Potencies beside an inconclusive call are fits to weak or partial responses and may not hold up.
# Assay: Quantitative High-Throughput Screen for Regulators of Epigenetic Control; also: nearly all actives have a fitted effect of over 60% in size; as to GFP activation: % of control where 0% means no effect
# Settings: murine LDR cells, GFP reporter derepression, 30 h; GFP activation: at 53.9 µM (top of the series)
# Method in brief: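 In this reporter-derepression format, murine cells bearing a silenced integrated CMV-GFP locus incubate with test compound (30 h, 37 C), then are washed and imaged; fluorescent objects of 20–120 um count as induced cells.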
# Potency is read from the fitted curve at half-maximal effect; tags tell the direction and shape of the fitted curve.
SMILES,GFP activation,Potency
COc1ccc(/C=N/Nc2nc3ccccc3o2)cc1O,inactive: 0.73%,–
CCn1c(SCC(=O)N/N=C(/C)c2ccncc2)nc2ccccc21,–,"inconclusive: 14.1 µM [activator, single point]"
CCOc1ccc2nc(Nc3nc4ccc(NC(C)=O)cc4s3)sc2c1,–,"inconclusive: 31.6 µM [activator, single point]"
O=c1cc(COc2ccccc2[N+](=O)[O-])nc2sccn12,–,"inconclusive: 14.1 µM [activator, single point]"
CCNc1ccc(C(=O)OCC(=O)NCc2ccccc2Cl)cc1[N+](=O)[O-],–,"inconclusive: 25.1 µM [activator, single point]"
CS(=O)(=O)c1oc(-c2ccc(F)cc2)nc1S(=O)(=O)c1ccc(Cl)cc1,–,"inconclusive: 3.98 µM [activator, single point]"
COc1ccc(Cl)cc1NC(=O)CSC1=Nc2ccccc2C2=NC(CC(=O)NC3CCCCC3)C(=O)N12 (stereo not given),inactive: -0.449%,–
O=C(Nc1cccc(C(F)(F)F)c1)/C(=C\c1ccco1)NC(=O)c1cccs1,–,"inconclusive: 35.5 µM [activator, single point]"
CC1=NOC(=O)/C1=C\c1ccc(-c2ccc(Br)cc2)o1,–,"inconclusive: 22.4 µM [activator, partial curve]"
COc1ccc(Nc2nc3c(C)cccn3c(=O)c2C=NCc2ccccc2)cc1,–,"inconclusive: 12.6 µM [activator, single point]"
COc1ccc(S(=O)(=O)N2CCC(n3cnc4cc(C(F)(F)F)ccc43)CC2)cc1,inactive: -0.741%,–
Cc1ccc(C(C)C)c(OCCCNCc2cccnc2)c1,inactive: -6.39%,–
CN(C)c1ccc(/C=C/c2ccc3ccccc3n2)cc1,–,"inconclusive: 31.6 µM [activator, single point]"
Cc1noc(/C=C/c2ccc(-c3ccccc3Cl)o2)c1[N+](=O)[O-],–,active: 7.08 µM
CCN1C(=O)c2cccc3c(NC(=O)c4ccc5c(c4)OCCO5)ccc1c23,–,active: 22.4 µM
CC(=O)NNC(=S)NC(=O)C(c1ccccc1)c1ccccc1,–,"inconclusive: 25.1 µM [activator, single point]"
CCOC(=O)CNc1nc2ccccc2n2c(C)nnc12,–,"inconclusive: 25.1 µM [activator, single point]"
CCc1ccc(-c2cc(C(=O)Nn3cnnc3)c3ccccc3n2)cc1,inactive: -4.63%,–
O=C(NCc1ccccc1Cl)c1ccc2c(c1)NC(=O)C(CS(=O)(=O)Cc1ccc(Cl)cc1)N2 (stereo not given),–,"inconclusive: 25.1 µM [activator, single point]"
COc1ccccc1-c1nn(CCC(=O)Nc2ccccc2)c2nc(C)cc(C)c12,inactive: 4.84%,–
